# Results reported in patent publication US20110217279A1 (UNIVERSITY OF ROCHESTER, published 2011).
# B1: GST alone (other)
# chain: not shown
# notes: Negative control of the GST pull-down
# Target: T1, human PKC-δ (protein kinase C delta), wild type, expressed in HEK293A cells (human, UniProt Q05655)
# T1 construct: Present in cell lysates (pull-down and co-immunoprecipitation); also called wt-PKC-δ; pcDNA3-PKC-δ
# Test: GST pull-down from lysate of 293A cells overexpressing PKC-δ, blot with anti-PKC-δ
# Protocol: GST-hBVR stably binds to PKC-δ as shown in the GST pull-down assay of FIG. 2A. Lysate (1 mg protein) prepared from 293A cells overexpressing PKC-δ was subjected to the GST-pull-down assay using GST-hBVR (10 μg/ml) or GST alone. At the indicated times, the GSH-agarose bound fraction was collected, washed, and separated on SDS-PAGE together with PKC-δ and GST-hBVR standards (ST). Proteins in the cell were transferred to a nitrocellulose membrane, which was probed sequentially with anti-PKC-δ, and anti-hBVR antibodies. hBVR and PKC-δ co-immunoprecipitate as shown in the immunoblot of FIG. 2B. HEK-293A cells were transfected with PKC-δ and HA-tagged hBVR, and starved and treated with PMA for 15 minutes. Cell lysates were immunoprecipitated with anti-HA antibodies and blotted onto nitrocellulose. […] The membrane was sequentially probed with anti-PKC-δ and anti-hBVR antibodies. The immunofluorescence cell images of FIG. 2C depict hBVR and PKC-δ co-localization. Cells co-expressing pEGFP-hBVR and pDs2-red-PKC-δ were grown in chamber slides. […]
# Cell Culture, infection, transfection, GST pull-down and co-immunoprecipitation: HEK 293A cells were grown in Dulbecco's Modified Eagle Medium (Invitrogen) containing 10% fetal bovine serum and 1% penicillin-G/streptomycin for 24 h or until the cells reached 70% confluency. […] Western blotting determined overexpression of hBVR or PKC-δ. […]
# T1 sequence (Q05655 whole entry, stated change not applied): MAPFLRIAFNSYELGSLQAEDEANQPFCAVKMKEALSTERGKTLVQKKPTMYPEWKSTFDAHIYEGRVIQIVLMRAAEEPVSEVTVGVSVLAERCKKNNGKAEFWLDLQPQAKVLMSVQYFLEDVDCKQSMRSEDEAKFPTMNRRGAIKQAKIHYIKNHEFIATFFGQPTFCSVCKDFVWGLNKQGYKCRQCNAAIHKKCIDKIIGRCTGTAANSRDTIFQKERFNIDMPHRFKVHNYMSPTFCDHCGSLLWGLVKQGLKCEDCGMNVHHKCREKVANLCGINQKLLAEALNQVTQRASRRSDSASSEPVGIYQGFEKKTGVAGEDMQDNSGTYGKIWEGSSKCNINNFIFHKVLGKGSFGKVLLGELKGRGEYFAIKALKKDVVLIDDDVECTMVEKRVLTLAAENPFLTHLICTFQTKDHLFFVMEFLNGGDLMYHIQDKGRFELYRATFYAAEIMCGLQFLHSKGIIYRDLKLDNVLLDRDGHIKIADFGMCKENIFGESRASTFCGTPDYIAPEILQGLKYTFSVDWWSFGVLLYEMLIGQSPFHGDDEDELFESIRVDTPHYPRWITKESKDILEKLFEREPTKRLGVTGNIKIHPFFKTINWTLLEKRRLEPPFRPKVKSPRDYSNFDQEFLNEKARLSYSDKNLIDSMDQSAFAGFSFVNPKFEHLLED
binder,measurement,value
B1,binding result,no binding (tested: 10 µg GST on GSH-agarose beads)
